Test results published in ChEMBL document CHEMBL4888484, “Replenishing the malaria drug discovery pipeline: Screening and hit evaluation of the MMV Hit Generation Library 1 (HGL1) against asexual blood stage Plasmodium falciparum ,using a nano luciferase reporter read-out” (2022).
Screen size: about 150,000 compounds; about 540 (0.36%) showed an effect of 50% or more. The list shows a part of the results.

Test system: Plasmodium falciparum
Assay: Primary screen in NF54 nanoGlo assay, in single point, at 2uM, 72h; a lower Z score goes with more inhibition
Type: functional, Erythrocyte
Details: timepoint 72 hour

Row | Compound | % Inhibition [%] | Z score
1 | O=C(Nc1nc2ccccc2s1)c1csc2c1CCCC2 | 30 | -3.37
2 | CCC(NC(=O)C1CCC(=O)N1C)C1CN(Cc2ccccc2)CCO1 (stereo not drawn) | -8 | 1.58
3 | Cc1ccc(F)c(S(=O)(=O)N2CCCC(N3C(C)CCC3C)C2)c1 (stereo not drawn) | -8 | 0.85
4 | CC1(C)[C@]2(C(=O)Nn3cnnc3)CC[C@@]1(C)OC2=O | 2 | -0.45
5 | CC(C)[C@]1(C)CC(=O)N(Cc2nnn(C)n2)C1=O | 5 | -0.49
6 | Cc1nn(C)c(Cl)c1-c1nnc2cccc(C)n12 | -11 | 1.34
7 | C[C@H]1CN(C(=O)c2cnccc2N)CCCO1 | 0 | 0.07
8 | Cc1nccn1Cc1nnc(C2CCN(c3ncnc4[nH]ccc34)CC2)n1C | -4 | 0.7
9 | CN(CC(=O)Nc1ccc2c(c1)OCO2)Cc1cccs1 | -6 | 0.92
10 | Cc1cc(C(F)F)nn1CC(=O)Nc1sc2c(c1C#N)CCC2 | -6 | 0.88
11 | COCC(=O)N(CCN1CCCC1)CC(=O)N(Cc1ccc(F)cc1)Cc1cccs1 | 10 | -0.98
12 | CC1(C)CC(Nc2cnn(-c3ccncc3)c2)CC(C)(C)O1 | -5 | 0.92
13 | CCCC(=O)Nc1ccc([C@H](C)O)cc1 | -16 | 1.5
14 | COc1ccc(C(C)N(C)C(=O)CC2(c3cccc(C(F)(F)F)c3)CC(=O)N(C3CC3)C2=O)cc1 (stereo not drawn) | -16 | 3.06
15 | N#Cc1cccc(-c2cn3c(n2)N(C(=O)C2CCC2)CCC3)c1 | -2 | 0.27
16 | Cc1cc(OCc2cc(C)on2)cc(C)n1 | 29 | -3.92
17 | Cc1ccc(-n2nc(C)c3c(=O)n(CC(=O)NCc4ccccc4C(F)(F)F)ccc32)cc1 | 0 | -0.01
18 | Cc1cc(C(=O)NCCCC2CCCC2)on1 | -14 | 2.15
19 | CN(C)C[C@@H]1CN(C(=O)c2ccccc2OCc2ccccc2)C[C@@H]1CO | -6 | 0.95
20 | CC1CCN(S(=O)(=O)N(C)c2ccn(C)n2)CC1 | -9 | 1.02
21 | COc1ccc(C2C3COC(C)OCC3ON2C)cc1OC (stereo not drawn) | 7 | -0.87
22 | CC(C)(C)CC(=O)N1C[C@@H]2CN(CCO2)C(=O)[C@@H]2C[C@@H](CN2Cc2cccc(Cl)c2)NC(=O)C[C@@H]2O[C@H](C1)[C@@H](O)[C@H]2O | 10 | -1.32
23 | COc1ccc(CCC(=O)N[C@H]2CC(=O)N(c3ccc4c(c3)OCCO4)C2)cc1 | -15 | 2.72
24 | COc1ccc(-c2nnc(C(C)=O)n2Nc2ccc(F)cc2)cc1 | -15 | 1.76
25 | Oc1ccccc1-c1ccnc2c(-c3ccccc3)cnn12 | 9 | -1.42
26 | O=C(Cn1cnc2ccccc2c1=O)NC1CCCCCC1 | -1 | 0.11
27 | C[C@@H](c1ccccc1)N(Cc1nc(C(=O)NCc2ccccc2)co1)Cc1ccccc1C(F)(F)F | -2 | 0.47

Row | Compound | % Inhibition [%] | Z score
28 | CN(C)Cc1ccc(-c2cccc3cnccc23)nc1 | -4 | 0.73
29 | OCC1CN(c2nc(-c3ccccc3)ns2)C1 | -15 | 1.4
30 | CN(C)c1nc2c(s1)CN(c1ncnc3c1ncn3C)CC2 | -11 | 1.71
31 | Cc1ccc(OCc2nnc(C3CC3)n2C)c(CO)n1 | -12 | 1.01
32 | CCOc1ccc(N2C(=O)NC3c4ccccc4OC2(C)C3C(=O)Nc2ccc(C)cc2C)cc1 (stereo not drawn) | -7 | 1.08
33 | Cc1cccc(C)c1OCc1noc(-c2ccccc2C(F)(F)F)n1 | -5 | 0.58
34 | CN1Cc2ccccc2C[C@H]1C(=O)NCCN1CCOC1=O | 11 | -1.38
35 | C#CCCC1(CCC(=O)N2CCC(=O)N(C)c3ccccc32)N=N1 | -3 | 0.62
36 | Cc1c[nH]nc1CN[C@@H]1c2ccccc2CC12CCOCC2 | -2 | 0.36
37 | CN1CCN(CCNCc2ccc(Br)cc2F)CC1 | -5 | 0.85
38 | Cc1noc(-c2cc(C)n(-c3ccccc3)n2)n1 | -10 | 1.03
39 | O=C1NCCC[C@@H]1NCc1ccc(F)c(-c2cccs2)c1 | -12 | 1.81
40 | COc1cc(CN(C)CCC(=O)N2CCc3ccccc3C2)sn1 | 8 | -1.44
41 | Cc1ccc(N=C(NOC(=O)c2ccccc2)c2nonc2N)c(C)c1 | -7 | 1.15
42 | O=S(=O)(c1cc(-c2nnc(C3CC3)o2)cs1)N1CCOCC1 | -7 | 0.77
43 | CN(C)c1ccc(-c2nc(-c3ccc4[nH]c(=O)[nH]c4c3)cs2)cc1 | -5 | 0.7
44 | CCc1nc(-c2ccc(-c3noc(-c4ccc(C)s4)n3)cc2)cs1 | -15 | 1.56
45 | COCCCNC(=O)[C@@H](C)C1CCN(C(=O)c2ccc3nc(-c4ccccc4)oc3c2)CC1 | -11 | 1.25
46 | CC(C)C(=O)N1CCN(c2nc3c(s2)C[C@@H](C(=O)Nc2ccccc2)CC3)CC1 | 28 | -3.21
47 | COc1ccc([C@@H]2CCCN2C(=O)CCC2CCCCC2)cc1OC | -1 | 0.06
48 | CC(C)N1C(=O)C[C@H](Nc2ncc(Cl)cn2)C1=O | -3 | 0.56
49 | CCc1nn(C)cc1-c1cccc(C(=O)N(C)Cc2ccc(OC)c(O)c2)c1 | -12 | 2
50 | CCC(=O)Nc1cccc(-c2noc(C3CCN(C(=O)c4ccc5cc[nH]c5c4)CC3)n2)c1 | -11 | 1.37
51 | COC(=O)C1CC12CCN(CC(O)COc1ccccc1C#N)CC2 (stereo not drawn) | 1 | -0.21
52 | O=C(O)[C@@H](c1ccsc1)N1CCC(c2nc3ccccc3s2)CC1 | -15 | 1.74
53 | CCn1cc(S(=O)(=O)N2CCC3(CCC(=O)N(C4CC4)C3)CC2)cn1 | -12 | 1.7
54 | CNC(=O)c1ccccc1-c1csc2ccccc12 | -4 | 0.76
